Article PMC12820563, “FoxP3 forms a head-to-head dimer in vivo and stabilizes its multimerization on adjacent microsatellites”
Some of the results follow.

target: T1, MBP-FoxP1dN (Mus musculus, UniProt P58462 326-579); assay: PD-seq (MBP pull-down with sequencing); 20 mM Tris-HCl pH 7.5, 100 mM NaCl, 1.5 mM MgCl2, 0.4 uM protein, 0.1 uM dsDNA library, 30 min, room temperature, amylose pull-down; high values mean tight binding; details: protein: recombinant; tags: His6-MBP; chain copies: 2; dsDNA, one strand shown
T1 sequence: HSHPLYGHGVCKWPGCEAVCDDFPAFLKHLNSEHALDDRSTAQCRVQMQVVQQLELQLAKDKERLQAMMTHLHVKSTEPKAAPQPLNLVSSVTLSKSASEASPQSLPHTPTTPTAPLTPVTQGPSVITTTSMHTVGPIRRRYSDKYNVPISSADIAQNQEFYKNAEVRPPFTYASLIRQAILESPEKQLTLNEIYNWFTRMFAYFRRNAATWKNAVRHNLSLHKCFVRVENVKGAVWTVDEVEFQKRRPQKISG
Outline: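 Binding is the reads-per-million enrichment of pull-down relative to input, pooled across replicates. For this, 0.4 µM His6-MBP-tagged mouse FoxP3 or FoxP1 fragment lacking the N-terminus, made in E. coli, was incubated with 0.1 µM Klenow-filled double-stranded degenerate DNA library for 30 min at room temperature in Tris pH 7.5 buffer with NaCl and MgCl2. Complexes bound to amylose resin were washed three times before proteinase K released the DNA for PCR barcoding and Illumina sequencing.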

Row | Sequence | binding signal
1 | GATGATTGTTCTCCCAGCTGATGAATTGCCGTGTTCGAGTAAACAAATTTTCCTAATCTTTCTGTTCAAGCGCCATCTAC | 0.927 RPM ratio (pull-down/input)
2 | GATGATTGTTCTCCCAGCTGATGAATTCGTTCTATCGAGTAAACAAATTTTCCTAATCTTTCTGTTCAAGCGCCATCTAC | 0.93 RPM ratio (pull-down/input)
3 | GATGATTGTTCTCCCAGCTGATGAATTGCCGCACTCGAGTAAACAAATTTTCCTAATCTTTCTGTTCAAGCGCCATCTAC | 0.941 RPM ratio (pull-down/input)
4 | GATGATTGTTCTCCCAGCTGATGAATTATACTTATCGAGTAAACAAATTTTCCTAATCTTTCTGTTCAAGCGCCATCTAC | 1.1 RPM ratio (pull-down/input)
5 | GATGATTGTTCTCCCAGCTGATGAATTATACTAGTCGAGTAAACAAATTTTCCTAATCTTTCTGTTCAAGCGCCATCTAC | 0.983 RPM ratio (pull-down/input)
6 | GATGATTGTTCTCCCAGCTGATGAATTGTAGTGTTCGAGTAAACAAATTTTCCTAATCTTTCTGTTCAAGCGCCATCTAC | 1.24 RPM ratio (pull-down/input)
7 | GATGATTGTTCTCCCAGCTGATGAATTGTTTAGGTCGAGTAAACAAATTTTCCTAATCTTTCTGTTCAAGCGCCATCTAC | 1.93 RPM ratio (pull-down/input)
8 | GATGATTGTTCTCCCAGCTGATGAATTGAGTTCATCGAGTAAACAAATTTTCCTAATCTTTCTGTTCAAGCGCCATCTAC | 0.874 RPM ratio (pull-down/input)
9 | GATGATTGTTCTCCCAGCTGATGAATTATTCAGTTCGAGTAAACAAATTTTCCTAATCTTTCTGTTCAAGCGCCATCTAC | 1.04 RPM ratio (pull-down/input)
10 | GATGATTGTTCTCCCAGCTGATGAATTCGTCACTTCGAGTAAACAAATTTTCCTAATCTTTCTGTTCAAGCGCCATCTAC | 0.853 RPM ratio (pull-down/input)
11 | GATGATTGTTCTCCCAGCTGATGAATTCGGCACGTCGAGTAAACAAATTTTCCTAATCTTTCTGTTCAAGCGCCATCTAC | 0.848 RPM ratio (pull-down/input)
12 | GATGATTGTTCTCCCAGCTGATGAATTATATAAATCGAGTAAACAAATTTTCCTAATCTTTCTGTTCAAGCGCCATCTAC | 1.16 RPM ratio (pull-down/input)
13 | GATGATTGTTCTCCCAGCTGATGAATTGAAACGTTCGAGTAAACAAATTTTCCTAATCTTTCTGTTCAAGCGCCATCTAC | 0.848 RPM ratio (pull-down/input)
14 | GATGATTGTTCTCCCAGCTGATGAATTATTACGGTCGAGTAAACAAATTTTCCTAATCTTTCTGTTCAAGCGCCATCTAC | 0.992 RPM ratio (pull-down/input)
15 | GATGATTGTTCTCCCAGCTGATGAATTCTAACTGTCGAGTAAACAAATTTTCCTAATCTTTCTGTTCAAGCGCCATCTAC | 0.866 RPM ratio (pull-down/input)
16 | GATGATTGTTCTCCCAGCTGATGAATTAAAAGAGTCGAGTAAACAAATTTTCCTAATCTTTCTGTTCAAGCGCCATCTAC | 0.847 RPM ratio (pull-down/input)
17 | GATGATTGTTCTCCCAGCTGATGAATTCTTTCCATCGAGTAAACAAATTTTCCTAATCTTTCTGTTCAAGCGCCATCTAC | 0.967 RPM ratio (pull-down/input)
18 | GATGATTGTTCTCCCAGCTGATGAATTCGAAGAGTCGAGTAAACAAATTTTCCTAATCTTTCTGTTCAAGCGCCATCTAC | 0.729 RPM ratio (pull-down/input)
